# According to publication PMC4336329 (PLoS ONE, 2015):
# Screen size: about 310,000 compounds; about 2,200 (0.71%) showed an effect of 50% or more. The effect is printed as a negative number. Some of the results follow.
# Biological target: human ether-à-go-go-related gene (hERG) potassium channel (human, UniProt Q12809)
# Assay: primary screen, population patch clamp on CHO cells stably expressing hERG
# Chain of human ether-à-go-go-related gene (hERG) potassium channel (Q12809 whole entry, looked up): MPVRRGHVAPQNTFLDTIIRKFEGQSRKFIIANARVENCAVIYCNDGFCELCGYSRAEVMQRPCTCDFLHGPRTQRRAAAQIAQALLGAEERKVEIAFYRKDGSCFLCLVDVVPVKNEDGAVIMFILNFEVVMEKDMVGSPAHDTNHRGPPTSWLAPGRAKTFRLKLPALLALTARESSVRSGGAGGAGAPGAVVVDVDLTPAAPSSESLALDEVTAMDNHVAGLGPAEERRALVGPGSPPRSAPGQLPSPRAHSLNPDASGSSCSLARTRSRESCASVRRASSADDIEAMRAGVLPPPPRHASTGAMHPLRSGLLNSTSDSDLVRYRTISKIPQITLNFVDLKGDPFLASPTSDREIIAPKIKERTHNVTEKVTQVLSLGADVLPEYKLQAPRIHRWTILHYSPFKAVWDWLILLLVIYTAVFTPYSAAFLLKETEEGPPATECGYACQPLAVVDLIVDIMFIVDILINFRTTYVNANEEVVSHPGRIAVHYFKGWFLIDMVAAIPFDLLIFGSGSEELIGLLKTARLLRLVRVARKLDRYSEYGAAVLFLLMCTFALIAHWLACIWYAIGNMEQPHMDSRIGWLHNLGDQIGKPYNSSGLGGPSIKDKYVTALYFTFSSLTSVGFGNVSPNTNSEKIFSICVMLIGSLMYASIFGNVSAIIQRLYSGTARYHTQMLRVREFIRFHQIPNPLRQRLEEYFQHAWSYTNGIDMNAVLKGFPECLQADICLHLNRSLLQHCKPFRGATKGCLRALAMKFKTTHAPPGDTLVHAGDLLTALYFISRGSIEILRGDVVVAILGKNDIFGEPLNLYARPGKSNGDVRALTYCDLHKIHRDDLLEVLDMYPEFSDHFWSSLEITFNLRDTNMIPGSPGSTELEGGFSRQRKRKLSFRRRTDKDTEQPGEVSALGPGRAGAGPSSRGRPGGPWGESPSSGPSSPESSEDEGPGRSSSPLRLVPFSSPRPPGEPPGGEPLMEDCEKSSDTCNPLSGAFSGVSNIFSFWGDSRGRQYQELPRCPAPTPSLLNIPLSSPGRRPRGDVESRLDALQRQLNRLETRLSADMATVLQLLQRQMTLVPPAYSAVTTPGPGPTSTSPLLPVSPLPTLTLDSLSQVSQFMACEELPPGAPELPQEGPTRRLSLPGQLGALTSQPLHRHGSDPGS
row,Compound,"hERG current change (%, negative = inhibition) at 1uM [%]"
1,O=C(Nc1ccncc1)c1cc(F)cc(F)c1,0.493
2,O=C(NC(C(=O)NCCN1CCOCC1)C12CC3CC(CC(C3)C1)C2)C1CCCCC1 (stereo not shown),6.22
3,Cc1cccc(CC(C)NC(=O)c2cc(COc3ccc(C)c(C)c3)on2)n1 (stereo not shown),13.2
4,COc1ccc(OC)c(S(=O)(=O)CC(O)CS(=O)(=O)c2ccccc2)c1 (stereo not shown),9.24
5,O=C(CSc1n[nH]c(-c2cccnc2)n1)Nc1ccc([N+](=O)[O-])cc1,8.42
6,O=C(Cn1ccc(C(F)(F)F)n1)N/N=C/c1cccs1,10.7
7,Cn1c(SCC(=O)N/N=C/c2cc([N+](=O)[O-])ccc2O)nnc1-c1ccccc1,10.3
8,Cc1ccc2[nH]c(CN3CCN(C)C(CCO)C3)c(C)c2c1 (stereo not shown),4.47
9,CN(CC(=O)Nc1ccccc1Cl)C(=O)COc1cccc2c1OC(C)(C)C2,7.48
10,Cc1cc(OCC(=O)NC2CC2)c2c(C)c(C)c(=O)oc2c1,15.3
11,C=CCN1C(=O)c2ccc(C(=O)N3CCN(S(=O)(=O)c4ccc(C(C)C)cc4)CC3)cc2C1=O,4.96
12,O=C(Nc1ccccc1O)/C(=C\c1ccccc1)NC(=O)c1ccccc1,-0.376
13,Cc1cc(=S)[nH]c(=S)[nH]1,1.2
14,O=C(N/C(=C/c1ccc(Br)cc1)C(=O)N1CCCC1=O)c1ccco1,-11.1
15,O=C(NCCc1ccc(Cl)cc1)c1cnc2n(c1=O)CCS2,4.37
16,CSc1nnc(C)c(=O)n1COC(=O)COc1ccccc1C,11.3
17,CCc1ccc(OCC(=O)Nc2ccc3[nH]ncc3c2)cc1,10.7
18,CC1(C)CC(=O)N(CC(=O)N2CCN(c3ncccn3)CC2)c2ccccc2S1(=O)=O,-8.94
19,Oc1ccc(N=Nc2ccc3c(c2)OCO3)c2ccccc12,13.2
20,CC(=O)c1ccc2noc(-c3ccc(F)cc3)c2c1,11.3
21,Cc1ccc(NNC(=O)c2c(F)cccc2Cl)cc1C,8.08
22,C[C@H](NC(=O)OC(C)(C)C)C(=O)N/N=C/c1cccc2nccnc12,3.49
23,C=COCCn1c(C)c(C(C)=O)c2cc(O)ccc21,9.33

row,Compound,"hERG current change (%, negative = inhibition) at 1uM [%]"
1,C/C(=N\Nc1ccc2nncn2n1)c1ccc(Br)s1,14.7
2,Cc1nn(Cc2cccc(C(=O)NC34CC5CC(CC(C5)C3)C4)c2)c(C)c1Br,1.8
3,CN(c1ccc(C(=O)N2CCOCC2)cc1)S(=O)(=O)c1cccs1,18.3
4,Cc1ccc(Oc2ccc(OCC(=O)NC(C)C(=O)O)cc2)cc1 (stereo not shown),-0.182
5,NS(=O)(=O)c1ccc(NC(CNS(=O)(=O)c2ccccc2)c2ccccc2)cc1 (stereo not shown),11.1
6,CCOc1ccc(NS(=O)(=O)c2ccc(-c3coc(C)n3)cc2)cc1,17.5
7,NC(=O)C(C(=O)/C=C/c1ccc(Cl)cc1)=C1SCCS1,8.02
8,Cc1ccc(C(=O)N2CC(C)OC(C)C2)cc1[N+](=O)[O-] (stereo not shown),10.2
9,CCC(C)Oc1cccc(C(=O)Nc2ccccc2N2CCOCC2)c1 (stereo not shown),10.4
10,O=c1[nH]c(=O)c2ncc(-c3ccc(Cl)cc3)nc2[nH]1,11
11,CCCN(CCC)S(=O)(=O)c1cc2c3c(c1)CCN3C(=O)CC2,4.74
12,Cc1cc(S(=O)(=O)NCCc2ccccc2)c(C)s1,-2.86
13,O=C(CN1C(=O)NC2(CCCCCC2)C1=O)Nc1ccc2c(c1)CCC2,15.7
14,CC1(C)Cc2c(sc(NC(=O)C(=O)N3CCCCC3)c2C(N)=O)CO1,21.1
15,O=[N+]([O-])c1cccc(NC2=NCCC2)c1,11.3
16,COc1ccc(CCNC(=S)Nc2cccc(C)c2)cc1,0.639
17,Nc1nonc1N/N=C/c1c(O)ccc2ccccc12,-0.296
18,O=S(=O)(NCc1ccc2c(c1)OCO2)c1ccc2c(c1)oc1ccccc12,18.5
19,CC(CCN1CCC(n2nccc2NC(=O)c2ccccc2Cl)CC1)c1ccccc1 (stereo not shown),-85.1
20,COc1cc2[nH]c(C(=O)N3CCc4ccccc4C3)cc2c(OC)c1OC,13.8
21,Cc1ccc2oc(=O)c(/C=C(\O)c3ccccc3)nc2c1,5.88
22,O=C(COC(=O)c1ccc(Cl)s1)c1cc2ccccc2o1,-3.6
23,O=C(OCC(=O)N1CCN(C(=O)c2ccco2)CC1)c1cc(-c2ccccc2)nc2ccccc12,-7.53
